According to the supplement of paper PMC7826260:
Some of the results follow. The data describe in vitro nicking of single-stranded DNA by Rep domains for 1 h at 37 °C with 3 µM enzyme; only the middle of the 90-letter strands is printed. A value is the log2 ratio of uncut reads to the pool without enzyme; uncut sequences lie near 0, cut ones below; no hit call is given. Shares of all reads are compared, so uncut sequences can rise above 0 when many others are cut.

Legend:
Assay in all cases: uncleaved DNA left, log2 of reads against the no-enzyme library (log2 ratio); higher = less cleavage (more negative = more Rep cleavage of the k-mer); sequences stand for … in CTCGTCCG…ACCGGAGA
[1] = test system: T1, Rep nickase domain of Muscovy duck circovirus
T1 sequence (residues 1-111, tag not shown): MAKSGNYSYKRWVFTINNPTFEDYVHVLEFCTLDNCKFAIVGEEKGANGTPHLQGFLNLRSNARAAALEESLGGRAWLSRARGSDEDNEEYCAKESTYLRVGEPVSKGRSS
Method: (§1)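 A pool of 90-nt single-stranded DNAs with seven random bases just before the constant AC of the nick site (name = the seven bases) was cut by 3 µM recombinant His6-SUMO-tagged Rep nickase domain (300 nM DNA, 50 mM HEPES pH 8.0, 50 mM NaCl, 1 mM MnCl2, 1 h, 37 °C, three replicates). Uncut DNA was amplified and sequenced.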

[2] = test system: T2, Rep nickase domain of banana bunchy top virus
T2 sequence (residues 1-94, tag not shown): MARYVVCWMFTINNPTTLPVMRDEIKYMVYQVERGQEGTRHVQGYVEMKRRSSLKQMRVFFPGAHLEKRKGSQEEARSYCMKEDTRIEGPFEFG
Method: as §1

[3] = test system: T3, Rep nickase domain of cabbage leaf curl virus
T3 sequence (residues 1-116, tag not shown): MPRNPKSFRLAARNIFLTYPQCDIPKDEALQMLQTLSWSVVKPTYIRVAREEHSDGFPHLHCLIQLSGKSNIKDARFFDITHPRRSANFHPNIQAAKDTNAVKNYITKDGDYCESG
Method: as §1

[4] = test system: T4, Rep nickase domain of chickpea chlorotic dwarf virus
T4 sequence (residues 1-124, tag not shown): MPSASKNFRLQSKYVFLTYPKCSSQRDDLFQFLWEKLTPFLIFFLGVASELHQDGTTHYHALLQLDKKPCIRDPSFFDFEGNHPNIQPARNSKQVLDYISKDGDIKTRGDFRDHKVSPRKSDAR
Method: as §1

[5] = test system: T5, Rep nickase domain of faba bean necrotic yellows virus
T5 sequence (residues 1-98, tag not shown): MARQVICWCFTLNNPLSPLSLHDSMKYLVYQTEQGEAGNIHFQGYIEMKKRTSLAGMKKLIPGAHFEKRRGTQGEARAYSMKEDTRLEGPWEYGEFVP
Method: as §1

[6] = test system: T6, Rep nickase domain of maize striate mosaic virus
T6 sequence (residues 1-117, tag not shown): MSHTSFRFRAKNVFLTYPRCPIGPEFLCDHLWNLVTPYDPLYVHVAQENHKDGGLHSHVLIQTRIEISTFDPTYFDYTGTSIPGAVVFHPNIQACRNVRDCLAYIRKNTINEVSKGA
Method: as §1

[7] = test system: T7, Rep nickase domain of porcine circovirus 2
T7 sequence (residues 2-116, tag not shown): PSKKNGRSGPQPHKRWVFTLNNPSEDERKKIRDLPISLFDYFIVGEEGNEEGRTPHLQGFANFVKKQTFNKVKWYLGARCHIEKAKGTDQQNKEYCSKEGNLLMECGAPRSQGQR
Method: as §1

[8] = test system: T8, Rep nickase domain of tomato yellow leaf curl virus
T8 sequence (residues 1-136, tag not shown): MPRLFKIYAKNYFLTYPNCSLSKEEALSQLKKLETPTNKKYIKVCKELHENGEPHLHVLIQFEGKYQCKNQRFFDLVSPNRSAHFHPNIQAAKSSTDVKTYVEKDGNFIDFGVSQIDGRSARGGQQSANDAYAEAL
Method: as §1

[9] = test system: T9, Rep nickase domain of wheat dwarf virus
T9 sequence (residues 1-137, tag not shown): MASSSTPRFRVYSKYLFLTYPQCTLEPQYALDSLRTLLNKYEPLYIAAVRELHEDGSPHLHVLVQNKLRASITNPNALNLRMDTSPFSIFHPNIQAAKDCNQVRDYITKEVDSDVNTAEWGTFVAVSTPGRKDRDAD
Method: as §1

Row | Sequence | uncleaved DNA left (log2) [1] | uncleaved DNA left (log2) [2] | uncleaved DNA left (log2) [3] | uncleaved DNA left (log2) [4] | uncleaved DNA left (log2) [5] | uncleaved DNA left (log2) [6] | uncleaved DNA left (log2) [7] | uncleaved DNA left (log2) [8] | uncleaved DNA left (log2) [9]
1 | ATTTAGT | -3.26 | -2.39 | -0.432 | -1.24 | 0.0246 | -1.13 | -3.66 | -0.0236 | -0.141
2 | CCGGTTG | -0.0744 | -0.152 | -0.165 | 0.175 | 0.042 | 0.286 | 0.0801 | -0.297 | -0.11
3 | CTGTCTA | -0.0375 | -0.104 | -0.183 | -1.07 | -0.0288 | -0.59 | -0.168 | -0.00982 | -0.127
4 | TGCTAGA | 0.128 | 0.13 | -0.0758 | -0.215 | 0.131 | -0.708 | 0.211 | 0.111 | 0.131
5 | GTGCACA | 0.0135 | 0.191 | 0.43 | 1.03 | 0.063 | 1.72 | 0.181 | 0.155 | 0.169
6 | GAGACCC | 0.102 | 0.105 | 0.7 | 1.6 | -0.0252 | 2 | 0.0594 | 0.152 | 0.187
7 | GTAGTTA | 0.145 | 0.0743 | 0.252 | 0.563 | -0.0926 | 1.54 | 0.0235 | -0.0207 | -0.142
8 | ATACGTT | 0.0273 | -0.148 | -1.24 | -2.75 | -0.0258 | -0.933 | -0.374 | -0.219 | -0.6
9 | TTGGTTA | 0.000127 | 0.00126 | 0.124 | -0.384 | -0.0453 | 0.239 | -0.115 | 0.0966 | -0.216
10 | TGGGATC | -0.142 | 0.0341 | 0.663 | 1.71 | 0.00758 | 2.07 | 0.119 | -0.0508 | 0.0731
11 | ATGCGTT | 0.103 | 0.0192 | -0.688 | -0.96 | 0.0193 | -1.1 | -0.0409 | -0.0326 | -0.141
12 | GGGGCCA | -0.0441 | 0.0556 | 0.853 | 1.88 | -0.104 | 2.21 | 0.118 | 0.00212 | 0.103
13 | GTCGTAC | -0.0786 | -0.0175 | 0.199 | 0.707 | -0.0115 | 1.58 | -0.0778 | -0.057 | 0.00875
14 | GCCGTAT | -0.135 | -0.152 | 0.231 | 0.25 | -0.0752 | 0.389 | -0.0963 | -0.125 | 0.0753
15 | AATGCCT | -0.0939 | -0.219 | -0.274 | -1.49 | -0.0676 | -0.183 | -0.307 | -0.0839 | -0.0768
16 | TTATGTA | -0.547 | -0.00744 | 0.0523 | -0.969 | 0.0672 | -0.203 | -0.46 | 0.0854 | 0.000106

Row | Sequence | uncleaved DNA left (log2) [1] | uncleaved DNA left (log2) [2] | uncleaved DNA left (log2) [3] | uncleaved DNA left (log2) [4] | uncleaved DNA left (log2) [5] | uncleaved DNA left (log2) [6] | uncleaved DNA left (log2) [7] | uncleaved DNA left (log2) [8] | uncleaved DNA left (log2) [9]
17 | CAATGGA | 0.0865 | 0.0301 | -0.184 | -0.238 | 0.121 | -0.819 | -0.225 | 0.0841 | 0.08
18 | ATTGCAA | 0.075 | 0.102 | -0.533 | -0.6 | 0.087 | -0.931 | 0.169 | 0.168 | -0.057
19 | TCGTACC | -0.193 | -0.0407 | -0.0492 | -0.902 | -0.139 | -0.212 | -2.6 | 0.0998 | -0.0828
20 | GTCATCA | 0.05 | 0.171 | 0.308 | 0.915 | -0.0104 | 1.77 | 0.165 | 0.0889 | 0.16
21 | CGTCGGG | -0.0919 | -0.226 | -0.306 | -0.0796 | -0.0966 | -0.494 | -0.0716 | -0.222 | -0.0629
22 | ATTTCCT | -0.974 | -0.568 | -0.157 | -2.56 | -0.0808 | -0.629 | -1.95 | -0.00988 | 0.0167
23 | TGTACGA | -0.0115 | 0.116 | 0.149 | 0.0398 | 0.0716 | -0.346 | 0.0789 | 0.0821 | 0.06
24 | GTCGGGA | 0.0633 | -0.0128 | 0.398 | 0.934 | -0.039 | 1.47 | 0.0343 | 0.0344 | 0.125
25 | GTGGGGG | 0.161 | 0.00947 | 0.341 | 0.68 | 0.0184 | 0.73 | 0.146 | -0.0727 | -0.063
26 | CGACAAC | -0.0624 | 0.0385 | -0.0372 | 0.112 | -0.0889 | 0.648 | -0.00254 | -0.0748 | 0.0515
27 | GCATCAA | -0.00252 | 0.239 | 0.195 | 0.603 | 0.00734 | -0.0446 | 0.0285 | 0.146 | 0.142
28 | AAATGGT | -0.274 | -0.0215 | -3.63 | -2.75 | -0.0147 | -0.412 | -3.6 | -0.0627 | -1.47
29 | GACCATA | 0.0546 | 0.00657 | 0.0488 | -0.589 | 0.0315 | 0.48 | -0.0273 | 0.102 | 0.0689
30 | AAATGAA | -0.213 | 0.0431 | -0.226 | -0.72 | 0.0823 | -0.567 | -1.3 | -0.0293 | -0.048
31 | TCCGACT | 0.156 | -0.0606 | 0.144 | 0.172 | 0.158 | 0.793 | 0.105 | 0.0674 | 0.107
32 | GTACCAG | -0.0823 | -0.0175 | -0.147 | -0.153 | -0.0539 | -0.446 | -0.168 | -0.0507 | 0.00476
